Measurements taken from the supplement of paper PMC12217912.
This is one part of the list. Sequences were assembled here from the parent chain. Values near 0.05 are background.

B1: TEV protease; numbered along this chain (parent)
chain: MGESLFKGPRDYNPISSSICHLTNESDGHTTSLYGIGFGPFIITNKHLFRRNNGTLVVQSLHGVFKVKDTTTLQQHLVDGRDMIIIRMPKDFPPFPQKLKFREPQREERICLVTTNFQTKSMSSMVSDTSCTFPSGDGIFWKHWIQTKDGQCGSPLVSTRDGFIVGIHSASNFTNTNNYFTSVPKNFMELLTNQEAQQWVSGWRLNADSVLWGGHKVFMVKPEEPFQPVKEATQL

Variants of: B1
Experiment: raw area under fraction-flipped curve 0-4 h after induction (AUC4h, not background-subtracted), DNA-recorder readout of cleavage of the substrate (dimensionless); higher = more cleavage of the substrate by the protease variant
Conditions: temperature: 34 °C; time window: 0-4 h after rhamnose induction
Procedure: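 In vivo DNA recorder in E. coli TOP10(DE3) ΔrhaA at 34 °C. Each TEVp single-site mutant (parent TEVp 0) is paired with a single-site variant of the 7-mer TEVs (canonical ENLYFQ|S). The substrate sits between flexible linkers in a Bxb1-sfGFP-TEVs-SsrA fusion, so cleavage stabilises Bxb1 and speeds flipping of a recombination array, read by NGS. The value is the raw area under the fraction-flipped curve over 0-4 h after rhamnose induction (AUC4h), with ≥20 reads per time point. It is not background-subtracted; inactive controls average about 0.047.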
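Further: Bxb1 expression induced with 0.2% (w/v) L-rhamnose at OD600 near 0.5, cultures sampled hourly, flipped fraction per protease–substrate barcode pair counted by paired-end Illumina sequencing.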

Row | Variant | area with substrate ENLYFQA | area with substrate ENLYFQC | area with substrate ENLYFQK | area with substrate ENLYFQL | area with substrate ENLYFQM | area with substrate ENLYFQN | area with substrate ENLYFQP | area with substrate ENLYFQR | area with substrate ENLYFQS | area with substrate ENLYFQT | area with substrate ENLYFQV | area with substrate ENLYFQW | area with substrate ENLYFQF | area with substrate ENLYFQG | area with substrate ENLYFQH | area with substrate ENLYFQY | area with substrate ENLYFQE | area with substrate ENLYFQI | area with substrate ENLYFQD | area with substrate ENLYFQQ
1 | MGESLFKGPRDYNPISSSICHLTNESDGHTTSLYGIGFGPFIITNKHLFRRNNGTLVVQSLHGVFKVKDTTTLQQHLVDGRDGIIIRMPKDFPPFPQKLKFREPQREERICLVTTNFQTKSMSSMVSDTSCTFPSGDGIFWKHWIQTKDGQCGSPLVSTRDGFIVGIHSASNFTNTNNYFTSVPKNFMELLTNQEAQQWVSGWRLNADSVLWGGHKVFMVKPEEPFQPVKEATQL [M83G] | 0.0528 | 0.067 | 0.0645 | 0.0514 | 0.0695 | 0.0468 | 0.0474 | 0.0421 | 0.0565 | 0.0462 | 0.0486 | 0.0535 | – | – | – | – | – | – | – | –
2 | MGESLFKGPRDYNPISSSICHLTNESDGHTTSLYGIGFGPFIITNKHLFRRNNGTLVVQSLHGVFKVKDTTTLRQHLVDGRDMIIIRMPKDFPPFPQKLKFREPQREERICLVTTNFQTKSMSSMVSDTSCTFPSGDGIFWKHWIQTKDGQCGSPLVSTRDGFIVGIHSASNFTNTNNYFTSVPKNFMELLTNQEAQQWVSGWRLNADSVLWGGHKVFMVKPEEPFQPVKEATQL [Q74R] | 0.0761 | 0.0989 | 0.0738 | 0.0575 | – | 0.0802 | 0.122 | 0.0495 | 0.0909 | 0.0531 | 0.0678 | 0.0656 | 0.0633 | 0.0935 | 0.0656 | 0.0416 | – | – | – | –
3 | MGESLFKGPRDYNPISSSICHLTNESDGHTTSLYGIGFGPFIITNKHLFRRNNGTLVVQSLHGVFKVKDTTTLCQHLVDGRDMIIIRMPKDFPPFPQKLKFREPQREERICLVTTNFQTKSMSSMVSDTSCTFPSGDGIFWKHWIQTKDGQCGSPLVSTRDGFIVGIHSASNFTNTNNYFTSVPKNFMELLTNQEAQQWVSGWRLNADSVLWGGHKVFMVKPEEPFQPVKEATQL [Q74C] | 0.105 | – | 0.065 | 0.0553 | 0.116 | 0.0275 | 0.0432 | 0.0591 | 0.0938 | – | 0.058 | 0.0504 | – | – | 0.0812 | – | 0.067 | 0.0571 | – | –
4 | MGESLFKGPRDYNPISSSICHLTNESDGHTTSLYGIGFGPFIITNKHLFRRNNGTLVVQSLHGVFKVKDTTTLQQHLVDGRDMIIIRMPKDFPPFPQTLKFREPQREERICLVTTNFQTKSMSSMVSDTSCTFPSGDGIFWKHWIQTKDGQCGSPLVSTRDGFIVGIHSASNFTNTNNYFTSVPKNFMELLTNQEAQQWVSGWRLNADSVLWGGHKVFMVKPEEPFQPVKEATQL [K98T] | 0.101 | 0.11 | – | 0.0634 | 0.0861 | 0.0978 | 0.0431 | 0.0557 | 0.106 | 0.0711 | – | 0.0693 | 0.0798 | 0.0926 | – | – | – | 0.0638 | 0.0716 | 0.0785
5 | MGESLFKGPRDYNPISSSICHLTNESDGHTTSLYGIGFGPFIITNKHLFRRNNGTLVVQSLHGVFKVKDTTTLQQHLVDGRDMIIIRMPKDFPPFPQMLKFREPQREERICLVTTNFQTKSMSSMVSDTSCTFPSGDGIFWKHWIQTKDGQCGSPLVSTRDGFIVGIHSASNFTNTNNYFTSVPKNFMELLTNQEAQQWVSGWRLNADSVLWGGHKVFMVKPEEPFQPVKEATQL [K98M] | 0.105 | – | – | 0.0707 | 0.0771 | 0.0543 | 0.0665 | 0.0597 | 0.106 | – | – | 0.07 | – | 0.111 | 0.0898 | 0.106 | – | – | – | –
6 | MGESLFKGPRDYNPISSSICHLTNESDGHTTSLYGIGFGPFIITNKHLFRRNNGTLVVQSLHGVFKVKDTTTLQQHLVDGRDMIIIRMHKDFPPFPQKLKFREPQREERICLVTTNFQTKSMSSMVSDTSCTFPSGDGIFWKHWIQTKDGQCGSPLVSTRDGFIVGIHSASNFTNTNNYFTSVPKNFMELLTNQEAQQWVSGWRLNADSVLWGGHKVFMVKPEEPFQPVKEATQL [P89H] | 0.069 | – | – | 0.0491 | 0.0669 | 0.0686 | – | 0.0584 | 0.0914 | 0.0627 | – | 0.0505 | – | – | – | 0.0459 | – | 0.0588 | 0.0712 | 0.0698
7 | MGESLFKGPRDYNPISSSICHLTNESDGHTTSLYGIGFGPFIITNKHLFRRNNGTLVVQSLHGVFKVKDTTTLQQHLVDGMDMIIIRMPKDFPPFPQKLKFREPQREERICLVTTNFQTKSMSSMVSDTSCTFPSGDGIFWKHWIQTKDGQCGSPLVSTRDGFIVGIHSASNFTNTNNYFTSVPKNFMELLTNQEAQQWVSGWRLNADSVLWGGHKVFMVKPEEPFQPVKEATQL [R81M] | 0.0832 | – | 0.059 | 0.0632 | 0.0891 | 0.0686 | 0.0529 | 0.0591 | 0.0871 | 0.0567 | 0.0517 | 0.041 | – | – | 0.0823 | 0.0632 | – | 0.0521 | – | –
8 | MGESLFKGPRDYNPISSSICHLTNESDGHTTSLYGIGFGPFIITNKHLFRRNNGTLVVQSLHGVFKVKDTTTLQQHLVDGRDMIIIRMPKDFPPFPQKLHFREPQREERICLVTTNFQTKSMSSMVSDTSCTFPSGDGIFWKHWIQTKDGQCGSPLVSTRDGFIVGIHSASNFTNTNNYFTSVPKNFMELLTNQEAQQWVSGWRLNADSVLWGGHKVFMVKPEEPFQPVKEATQL [K100H] | 0.0903 | 0.128 | 0.0585 | – | 0.0807 | 0.0809 | 0.0665 | 0.0664 | 0.0962 | 0.0634 | 0.0648 | 0.0648 | – | 0.108 | 0.0973 | 0.0726 | – | – | 0.0642 | –
9 | MGESLFKGPRDYNPISSSICHLTNESDGHTTSLYGIGFGPFIITNKHLFRRNNGTLVVQSLHGVFKVKDTTTLQQHLVHGRDMIIIRMPKDFPPFPQKLKFREPQREERICLVTTNFQTKSMSSMVSDTSCTFPSGDGIFWKHWIQTKDGQCGSPLVSTRDGFIVGIHSASNFTNTNNYFTSVPKNFMELLTNQEAQQWVSGWRLNADSVLWGGHKVFMVKPEEPFQPVKEATQL [D79H] | 0.0749 | 0.0589 | 0.0634 | 0.0623 | 0.091 | 0.0526 | 0.0625 | 0.0613 | 0.0933 | 0.0529 | 0.0463 | – | – | – | 0.0698 | 0.0924 | – | – | 0.0679 | –
